PMC4260354
No constants are given. Whether binding was seen depends on the method and setting. Binding seen in cells or lysates may run through a third protein. Where a sequence is shown, tags or fusion partners need not be part of it.

Biological target: T1, SUVR2-Myc (Arabidopsis) (UniProt Q9FNC7)
T1 sequence: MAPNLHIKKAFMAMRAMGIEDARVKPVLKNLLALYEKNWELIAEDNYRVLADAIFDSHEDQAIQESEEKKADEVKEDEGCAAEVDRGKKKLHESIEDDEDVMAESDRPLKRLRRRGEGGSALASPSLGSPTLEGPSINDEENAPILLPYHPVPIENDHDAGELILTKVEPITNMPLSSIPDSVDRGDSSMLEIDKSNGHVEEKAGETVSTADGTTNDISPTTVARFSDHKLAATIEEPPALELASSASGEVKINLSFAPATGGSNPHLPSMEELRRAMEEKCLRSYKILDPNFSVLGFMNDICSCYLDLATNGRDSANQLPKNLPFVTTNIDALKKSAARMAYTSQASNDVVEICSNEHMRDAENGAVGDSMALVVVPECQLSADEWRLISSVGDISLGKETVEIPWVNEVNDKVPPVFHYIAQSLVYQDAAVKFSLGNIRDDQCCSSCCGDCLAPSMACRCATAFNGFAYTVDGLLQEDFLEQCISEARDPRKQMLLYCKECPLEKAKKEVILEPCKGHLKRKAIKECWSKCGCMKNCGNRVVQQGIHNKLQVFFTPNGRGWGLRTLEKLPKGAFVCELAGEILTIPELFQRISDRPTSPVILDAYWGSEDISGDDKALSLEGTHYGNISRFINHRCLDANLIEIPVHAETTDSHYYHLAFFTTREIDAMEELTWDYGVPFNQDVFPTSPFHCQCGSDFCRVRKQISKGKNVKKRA
Test: co-IP; protein extracts of Arabidopsis plants harboring two tagged proteins; anti-c-Myc agarose, anti-Flag M1 agarose or anti-AGO4 conjugated agarose; western blotting

- binding: no binding
B1: KTF1-Flag (protein, UniProt F4JW79 1-1493)
chain: MDRKGKGKQVAGSDSYSGGQKRKNSVEFRDEGLRIKKRKNPEVLQFFEESAEVGYYGGSSDEDDDGLGFLNDMEDEPEVEESSKAGKGEKGKSSFVFPKEEDLNEEEFDRIMEERYKPGSGFLRYADDDIKDAIEMDALAPTSKDPPIWKVKCAIGRERRSVFCLMHKFVELRKIGTKLEIISVFSVDHVKGFIFIEADKEHDVLEACKSLVGIYATRMVLLPKAETPNLLTVQKKTKKVSEGTWARVKNGKYKGDLAQIVAVSDTRNKALIKLIPRIDIQALTQKYGGGVTVQKGQTPAPRLISSSELEEFRPLIQVRRDRDTGITFEHLDSLMLKDGYLYKKVSLDSISSWGVIPTKDELLKFTPVDRKETGDVEWISEIYGEERKKKILPTCREGGKGEGSGGGKGEGSGGGKGEGSRGGKGEGSSDFKSESSYELYNLVCFSRKDFGLIVGVDDKGDGYKVLKEGIDGPVVVTVGKKEMQNGPFDSKFTALDLNKKQISVNDVVKISKGPSEGKQGVVRQVYRGIIFLYDESEEENGGYFCCKSQSCEKVKLFTEESNEKTGGFDGTAFEDFVSSPKSPLSPEKEWQPRERYNSSNQGDIGSTYSIGQKLRIRVGPLKGYLCRVIALRYSDVTVKLDSQHKIFTVKSEHLAEVRDRNTVLSTSGDAGTGSFQPFGMLGTESSTGDWAIGAGTSSEGGNWNIGGPSTDSHESLNIERNMVQLCREKNPWGGSKPTSDVSPTVADDNTSAWANAAAENKPASASDQPGGWNPWGKTPASEAGTVSGWGDTSASNVEASSWEKQGASTSNVADLGSWGTHGGSSGGNKQDEDSVWGKLCEASESSQKKEESSWGKKGGSDGESSWGNKDGNSSASKKDGVSWGQQDKGSDESKGGSAWSNQCGDFGSGKKKDGSSGWNKSAEDSNANSKGVPDWGQPNDGSSWGKKGDGAASWGKKDDGGSWGKKDDGNKDDGGSSWGKKDDGQKDDGGSSWEKKFDGGSSWGKKDDGGSSWGKKDDGGSLWGKKDDGGSSWGKEDDGGSLWGKKDDGESSWGKKDDGESSWGKKDDGGSSWGKKDEGGYSEQTFDRGGRGFGGRRGGGRRGGRDQFGRGSSFGNSEDPAPWSKPSGGSSWGKQDGDGGGSSWGKENDAGGGSSWGKQDNGVGSSWGKQNDGSGGGSSWGKQNDAGGGSSWGKQDSGGDGSSWGKQDGGGDSGSAWGKQNNTSGGSSWGKQSDAGGGSSWGKQDGGGGGSSWGKQDGGGGSGSAWGKQNETSNGSSWGKQNDSGGGSSWGKQDGGGGGSSWGKQNDGGGGSSWGKQGDGGSKPWNEHSGGGRGFGERRGGGGFRGGRNQSGRGGRSFDGGRSSSWKTDNQENTWKSDQSGGSDWKKGWGEDSNNSKPSGSSAGGCAGNWPSWDTNSKKETNDKPGDDSKSAWGTSNDQVNTDNNNDSWNKKPNNDVGTSGEADNAWGGKTNAVAPSPSGSAAWGTGDKKTGW
